Measurements reported in PubChem BioAssay AID504706 (National Center for Advancing Translational Sciences (NCATS), 2011).
About 200 (0.062%) of roughly 320,000 compounds were called active. The inconclusive results got no clear call from the source; some entries with a clear call stand among them for comparison. Calls follow the shape of the dose curve; as a rule, active = well fitted activation curve with a large enough effect; inconclusive = small, poorly fitted or top-dose-only effect; inactive = no such curve, though single readings can be large or run the other way. Potencies of inconclusive entries are left out as doubtful fits.
Potency is read from the fitted curve at half-maximal effect; tags tell the direction and shape of the fitted curve.

Experiment: qHTS assay for re-activators of p53 using a Luc reporter; also: nearly all actives have a fitted effect of over 45% in size; as to activity change, positive = activation: % of control where 0% means no effect
Conditions: H1299 p53-A138V BP100-luciferase reporter, luminescence, 24 h; series mostly up to 92.2 µM; activity change, positive = activation: at the top concentration
Outline: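 H1299 (p53-null), stable ts p53-A138V + BP100-Luc; 1000 cells/well, Opti-MEM/10% FBS; cpd 4 pt, 1:5; 24 h, 37 deg C, 5% CO2; detection reagent 10 min RT; luminescence.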
With `O=S(=O)(c1ccccc1)N1c2cc(Cl)ccc2Oc2nc3ccccc3nc21` the Potency was inconclusive [activator, full curve].
With `Cc1ccc(CNC(=O)CCc2nc3ccccc3c(=O)[nH]2)cc1` the “activity change, positive = activation” value was inactive: -21.1%.
For `N/C(=N\O)c1ccc(NC(=O)c2ccc(Br)o2)cc1`, the Potency was inconclusive [activator, partial curve, poor fit].
For `CC1C(=O)CCN(C(C)C)C1C` (stereo unspecified), the Potency was inconclusive [activator, single point].
For `CC/C(=N\NC(=O)c1ccc2c(c1)OCO2)C12CC3CC(CC(C3)C1)C2`, the Potency was inconclusive [activator, partial curve, poor fit].
In the case of `CC1CCCCC12NC(=O)N(CC(=O)c1ccc[nH]1)C2=O` (stereo unspecified), the “activity change, positive = activation” value is reported as inactive: 2.57%.
For `CC[C@@H](C)C(NC(=O)OC(C)(C)C)c1cn([C@@H](CCCCNC(=O)OC(C)(C)C)C(=O)N2CCN(C(=O)OC(C)(C)C)CC2)nn1` (stereo partly specified), the “activity change, positive = activation” value was inactive: 2.15%.
With `C/C(=N\NC(=O)c1cc(-c2cccs2)nc2ccccc12)c1ccccn1` the “activity change, positive = activation” value was inactive: -3.02%.
In the case of `CN(CC(=O)Nc1cccc(F)c1)C(=O)CCCNC(=O)c1ccc(Cl)cc1`, the Potency is reported as inconclusive [activator, full curve, poor fit].
For `Cc1ccc2oc(=O)c(/C=C(\O)CC(C)C)nc2c1`, the Potency was inconclusive [activator, single point].
For `COc1ccccc1CNC(=O)CCNS(=O)(=O)c1cc(Br)cnc1N`, the “activity change, positive = activation” value was inactive: -15.6%.
For `COc1ccc(OCC(O)Cn2c(=N)n(CCN3CCCCC3)c3ccccc32)cc1` (stereo unspecified), the Potency was inconclusive [activator, full curve, poor fit].
With `O=c1c2ccccc2cnn1CCOc1cccc(Br)c1` the Potency was inconclusive [activator, full curve, poor fit].
In the case of `CC(=O)/C=C(\C)Nc1ccc(-c2cnc(-c3ccccc3)o2)cc1`, the Potency is reported as inconclusive [activator, partial curve, poor fit].
For `COc1ccc(NC(=O)CN(C)C(=O)C2=COCCO2)cc1`, the “activity change, positive = activation” value was inactive: -4.64%.
For `O=C(OCc1ccccc1)N1CCc2ccccc21`, the Potency was inconclusive [activator, full curve, poor fit].
With `CN(C(=O)CSc1ncnc2sccc12)C1CCCCC1` the Potency was inconclusive [activator, partial curve, poor fit].
In the case of `Cc1cc(NS(=O)(=O)c2ccc(NC(=O)/C=C/c3ccccc3)cc2)no1`, the “activity change, positive = activation” value is reported as inactive: 4.36%.
For `CN(CC(=O)Nc1ccccc1Cl)C(=O)c1ccc(N2CCCCCC2)c([N+](=O)[O-])c1`, the Potency was inconclusive [activator, full curve, poor fit].
With `COc1cccc(CNC(C)C(=O)Nc2ccc(S(=O)(=O)N3CCCC3)cc2)c1` (stereo unspecified) the “activity change, positive = activation” value was inactive: -4.27%.
With `O=C(Cc1ccccc1)N/N=C/c1cc(Br)cc(Br)c1O` the Potency was inconclusive [activator, partial curve, poor fit].
With `COc1ccc(C2C(C(=O)c3ccccc3)=C(C)Nc3nc4ccccc4n32)c(OC)c1` (stereo unspecified) the Potency was inconclusive [activator, partial curve, poor fit].
With `CN(C)c1cccc(C(=O)NNC(=O)C23CC4CC(CC(C4)C2)C3)c1` the Potency was inconclusive [activator, full curve, poor fit].
In the case of `O=C(NNC(=O)c1cccs1)c1ccc(Cl)cc1`, the Potency is reported as inconclusive [activator, full curve, poor fit].
In the case of `O=C(CCC(=O)Nc1ccccc1Cl)NNC(=S)Nc1ccccc1C(F)(F)F`, the “activity change, positive = activation” value is reported as inactive: -0.0426%.
With `COC(=O)c1cnn2c3c(c(C)nc12)CCCC3` the Potency was inconclusive [activator, partial curve, poor fit].
With `O=C(Nc1cccc(O)c1)c1ccc(C(F)(F)F)cc1` the “activity change, positive = activation” value was inactive: 17%.
For `COc1ccc(CNC(=O)C(C)NC(=O)c2cc3ccccc3o2)cc1` (stereo unspecified), the Potency was inconclusive [activator, single point].
For `COc1ccc(NC(=O)CN2C(=O)NC(c3ccccc3)(c3ccccc3)C2=O)cc1`, the “activity change, positive = activation” value was inactive: 1.88%.
In the case of `O=C(Nc1nnc(-c2ccccc2Cl)o1)c1nc2ccccc2s1`, the Potency is reported as inconclusive [activator, partial curve, poor fit].
In the case of `Fc1ccc(-n2cc(-c3ccccc3)c3c(=S)nc[nH]c32)cc1`, the “activity change, positive = activation” value is reported as inactive: 6.36%.
In the case of `Cc1ccc(C)c(N2CCN(C(=O)c3ccc(Cn4c(=O)[nH]c5ccccc5c4=O)cc3)CC2)c1`, the “activity change, positive = activation” value is reported as inactive: -4.59%.
In the case of `CCCCCC(=O)Nc1cc(N(C)C)nc2ccccc12`, the “activity change, positive = activation” value is reported as inactive: -6.6%.
In the case of `CCOC(=O)C1(Cc2cccc(Cl)c2)CCCN(C(=O)c2cc(C)on2)C1` (stereo unspecified), the Potency is reported as inconclusive [activator, partial curve, poor fit].
For `COc1cc(C2C(C#N)=C(N)OC3=C2C(=O)CCC3)c([N+](=O)[O-])cc1OC` (stereo unspecified), the “activity change, positive = activation” value was inactive: 4.77%.
For `CN(C)S(=O)(=O)Oc1ccc(C(=O)Nc2cccc(Cl)c2)cc1`, the “activity change, positive = activation” value was inactive: 7.1%.
For `Cc1c(C(=O)OCC(=O)Nc2ccccc2OC(F)F)cccc1[N+](=O)[O-]`, the “activity change, positive = activation” value was inactive: -5.56%.
With `O=c1cccccc1NN=C1CCCCCC1` the Potency was inconclusive [activator, partial curve, poor fit].
In the case of `Cn1c(SCc2ccc(Cl)cc2Cl)nc(C(F)(F)F)cc1=O`, the “activity change, positive = activation” value is reported as inactive: -6.51%.
In the case of `Cc1cc(C)c(C)c(S(=O)(=O)N2CCN(c3ncnc4ccccc34)CC2)c1C`, the “activity change, positive = activation” value is reported as inactive: -5.21%.
In the case of `O=C(CSc1nc2ccccc2s1)Nc1cc(S(=O)(=O)N2CCOCC2)ccc1O`, the Potency is reported as inconclusive [activator, single point].
In the case of `Nc1c(C(=O)Nc2ccc3c(c2)OCCO3)nnn1Cc1cccc(Cl)c1`, the Potency is reported as inconclusive [activator, partial curve, poor fit].
For `CCN1C(=O)/C(=C\N2CCCCCC2)SC1=S`, the Potency was inconclusive [activator, partial curve, poor fit].
For `COc1ccc(NC2CCCN(C(=O)c3ccc(OC)o3)C2)cc1` (stereo unspecified), the Potency was inconclusive [activator, single point].
In the case of `CCN(C(=O)CSc1nnc(Nc2ccc(OC)cc2)s1)C1CCS(=O)(=O)C1` (stereo unspecified), the Potency is reported as inconclusive [activator, partial curve, poor fit].
In the case of `COc1cc(/C=C2\SC(=S)N(CCC(=O)N3CCCCC3)C2=O)cc(OC)c1OC`, the Potency is reported as inconclusive [activator, partial curve, poor fit].
For `COc1cc(C)ccc1OCc1cc(C(=O)N2CCCCCC2)no1`, the “activity change, positive = activation” value was inactive: 18.8%.
With `O=C(Nc1nnc(SCc2ccccc2)s1)c1ccco1` the Potency was inconclusive [activator, partial curve, poor fit].
For `Nc1c(C(=O)c2ccc(F)cc2)oc2ccccc12`, the Potency was inconclusive [activator, partial curve, poor fit].
For `Cc1nc2ccccc2c(=O)n1NS(C)(=O)=O`, the “activity change, positive = activation” value was inactive: -0.19%.
In the case of `c1ccc(Nc2nc3ccccc3[nH]2)nc1`, the Potency is reported as inconclusive [activator, partial curve, poor fit].
For `CCOc1ccc(S(=O)(=O)Nc2nc3ccccc3nc2-n2ccc(=NC(=O)c3cccs3)cc2)cc1`, the “activity change, positive = activation” value was inactive: -2.47%.
In the case of `Cn1c(-c2ncc(F)cc2F)cc2onc(-c3c(F)cccc3Cl)c2c1=O`, the Potency is reported as inconclusive [activator, partial curve, poor fit].
In the case of `N#Cc1nc(Nc2cccc(Cl)c2)c2ncn(C3CCCC3)c2n1`, the Potency is reported as inconclusive [activator, full curve, poor fit].
With `CC(C)(C)C(=O)Nc1ccc(-c2cn3cccnc3n2)cc1` the Potency was inconclusive [activator, full curve, poor fit].
With `Oc1cccc2c(NC(=S)Nc3ccc(OC(F)F)cc3)cccc12` the Potency was inconclusive [activator, partial curve, poor fit].
In the case of `Cc1ccccc1-c1nc2sc(-c3ccccc3)cc2c(=O)o1`, the “activity change, positive = activation” value is reported as inactive: 7.41%.
With `COC(=O)c1ccsc1NC(=O)CSc1nnnn1Cc1ccccc1` the “activity change, positive = activation” value was inactive: -4.16%.
For `Cc1cc(C)c2cccc(N)c2n1`, the “activity change, positive = activation” value was inactive: 1.32%.
With `C/C(N)=C(/C#N)C(=O)CSc1nn(-c2ccc(Cl)cc2)c(=S)s1` the Potency was inconclusive [activator, partial curve, poor fit].
For `COc1ccc(-c2sc(NC(C)=O)nc2-c2ccccc2)cc1`, the “activity change, positive = activation” value was inactive: -5.6%.
In the case of `N#C/C(=C\c1cccs1)c1nc2ccccc2[nH]1`, the Potency is reported as inconclusive [activator, partial curve, poor fit].
For `CC(C)(C)NC(=O)CSC(=Nc1ccccc1F)NC#N`, the Potency was inconclusive [activator, partial curve, poor fit].
For `COc1ccc(CN(C(=O)CSc2nnc(-c3ccc(F)cc3)o2)c2ccc(F)cc2)cc1`, the “activity change, positive = activation” value was inactive: 0.468%.
In the case of `CCN=c1scc(-c2cccs2)n1/N=C/c1cc(OC)ccc1O`, the Potency is reported as inconclusive [activator, full curve, poor fit].
For `O=C1N/C(=N/N=C/c2ccc(O)cc2)SC1Cc1ccccc1` (stereo unspecified), the “activity change, positive = activation” value was inactive: 6.67%.
With `COc1ccc(C(=O)c2cnc(/N=C/N(C)C)s2)cc1` the Potency was inconclusive [activator, partial curve, poor fit].
In the case of `Cc1ccccc1C(=O)Nc1ccc2nc3n(c(=O)c2c1)CCCC3`, the Potency is reported as inconclusive [activator, single point].
For `CCn1c(SCc2cccc(C(=O)O)c2)nnc1-c1ccccc1`, the Potency was inconclusive [activator, single point].
With `CCOC(=O)Cc1csc(NC(=O)c2ccco2)n1` the Potency was inconclusive [activator, partial curve, poor fit].
In the case of `COc1cccc(C(=O)Nc2cccc(C(C)=O)c2)c1`, the Potency is reported as inconclusive [activator, partial curve, poor fit].
